Measurements taken from PubChem BioAssay AID886 (National Center for Advancing Translational Sciences (NCATS), 2007).
Where “and” joins values, the source holds several entries; their conditions need not be identical. Identical values can stand only once. Screen size: about 73,000 compounds; about 2,500 (3.4%) were called active. Inconclusive means that the source gave no clear call. Such entries were picked first, then a sample of the others. Calls come from the whole dose curve; as a rule, active = well fitted inhibition curve with a large enough effect; inconclusive = small, poorly fitted or top-dose-only effect; inactive = no such curve, though single readings can be large or run the other way. A potency beside an inconclusive call is a rough fit, not a confirmed value.

The compounds below were run against 3-hydroxyacyl-CoA dehydrogenase type-2 (Homo sapiens) (UniProt Q99714) (assay: qHTS Assay for Inhibitors of HADH2 (Hydroxyacyl-Coenzyme A Dehydrogenase, Type II)). Conditions: recombinant HADH2, NADH fluorescence, beta-hydroxybutyryl-CoA; series mostly up to 57.1 µM; activity change, negative = inhibition: at the top concentration.
Summary of the method: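 20 nM HADH2 + cpd, 15 min RT; add 1 mM NAD+/90 uM beta-hydroxybutyryl-CoA; kinetic fluorescence 360/450 nm, 4 min. Tris-HCl pH 9.0, 0.01% Tween-20.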
% is set by controls: 0 for no effect and ±100 for the full control effect; potency is the fitted concentration of half-maximal effect; tags give direction and shape of the fitted curve.
Note: nearly all actives have a fitted effect of over 60% in size.

Sequence of UniProt Q99714 (Q99714 whole entry, looked up): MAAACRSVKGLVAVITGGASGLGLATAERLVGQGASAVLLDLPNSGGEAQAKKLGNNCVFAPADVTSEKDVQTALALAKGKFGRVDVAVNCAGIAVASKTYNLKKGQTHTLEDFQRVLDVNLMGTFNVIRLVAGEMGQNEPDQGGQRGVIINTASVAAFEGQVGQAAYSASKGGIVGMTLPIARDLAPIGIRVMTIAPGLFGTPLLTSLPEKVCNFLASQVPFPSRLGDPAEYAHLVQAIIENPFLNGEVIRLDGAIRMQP
Sequence of UniProt Q99714 (Q99714 whole entry, looked up): as above

| SMILES | Potency | activity change, negative = inhibition |
| --- | --- | --- |
| NNC(N)=S | inconclusive: 39.8 µM [inhibitor, single point] |  |
| O=C(Oc1ccc(-c2nnco2)cc1)N1CCCCC1 | inconclusive: 3.16 µM [inhibitor, single point] |  |
| O=C1C(Cl)=C(Cl)C(=O)C(Cl)=C1Cl | active: 0.126 µM |  |
| CCOc1cc(-c2nc3c(C)cccn3c2NCC2CCCO2)ccc1O (stereo not drawn) | active: 20 µM |  |
| CCCCOC(=O)c1ccccc1N | active: 20 µM |  |
| CN1CCN(C2=Nc3cc(Cl)ccc3Nc3ccccc32)CC1 | inconclusive: 39.8 µM [inhibitor, single point] |  |
| CCOP1(=S)Oc2cc3c(cc2C(C(=O)OC)(C(F)(F)F)O1)OCO3 (stereo not drawn) | inconclusive: 3.98 µM [inhibitor, full curve] |  |
| COc1cccc(Oc2c(C)oc3cc(OC(=O)N(C)C)ccc3c2=O)c1 | inconclusive: 39.8 µM [inhibitor, single point] |  |
| CCN(CC)CCOC(=O)c1cc2cc(COC)ccc2o1 | inconclusive: 25.1 µM [inhibitor, partial curve] |  |
| NC(=S)Nc1ccccc1 | inconclusive: 25.1 µM [inhibitor, partial curve] |  |
| COc1cc2c(cc1OC)-c1c(OC)c(OC)cc3c1C(C2)N(C)CC3 (stereo not drawn) | inconclusive: 39.8 µM [inhibitor, single point] |  |
| O=c1cc(-c2ccc(O)c(O)c2)oc2cc(O)cc(O)c12 | active: 15.8 µM |  |
| CC1(C)CC(=O)C(C2(O)C(=O)NC(=O)NC2=O)=C(O)C1 | inconclusive: 6.31 µM [inhibitor, single point] |  |
| C=CCc1c(C)[nH]c(=S)c(C#N)c1C | active: 12.6 µM |  |
| COCCCn1c(N)c(C(=O)OCCOC)c2nc3ccccc3nc21 | inconclusive: 31.6 µM [inhibitor, single point] |  |
| Brc1c(NC2=NCCN2)ccc2nccnc12 | inactive and inconclusive: 25.1 µM [inhibitor, partial curve] |  |
| CC(C)(C)c1cc(O)ccc1O | inconclusive: 15.8 µM [inhibitor, full curve] and inconclusive: 20 µM [inhibitor, full curve] and inconclusive: 6.31 µM [inhibitor, single point] |  |
| COC[C@H]1OC(=O)c2coc3c2[C@@]1(C)C1=C(C3=O)[C@H]2CCC(=O)[C@@]2(C)C[C@H]1OC(C)=O | inconclusive: 3.16 µM [inhibitor, full curve] |  |
| CCOP(=S)(OCC)Oc1nc(Cl)c(Cl)cc1Cl | inconclusive: 10 µM [inhibitor, full curve] |  |
| COc1cccc(-n2c(CNC(=O)OC(C)(C)C)n[nH]c2=S)c1 | inconclusive: 20 µM [inhibitor, partial curve] |  |
| N#C/C(=C\c1ccc(O)c(O)c1)C(=O)NCCCNC(=O)/C(C#N)=C/c1ccc(O)c(O)c1 | active: 15.8 µM |  |
| CN(C)[C@@H]1C(=O)C(C(N)=O)=C(O)[C@]2(O)C(=O)C3=C(O)c4c(O)cccc4[C@@](C)(O)[C@H]3[C@H](O)[C@@H]12 | active: 6.31 µM |  |
| N[C@@H](CSC1c2ccccc2-c2ccccc21)C(=O)O |  | inactive: -6.05% [at 11.4 µM] |
| COC(=O)c1cc2c(cn1)[nH]c1ccccc12 | inconclusive: 31.6 µM [inhibitor, single point] |  |
| CCOP(=S)(OCC)Oc1ccc([N+](=O)[O-])cc1 | inconclusive: 20 µM [inhibitor, partial curve] and inconclusive: 39.8 µM [inhibitor, single point] |  |

| SMILES | Potency | activity change, negative = inhibition |
| --- | --- | --- |
| Nc1ccc(-c2ccccc2)cc1 | inconclusive: 39.8 µM [inhibitor, single point] |  |
| N=C(N)c1ccc(-c2ccc(-c3ccc(C(=N)N)cc3)o2)cc1 | inconclusive: 6.31 µM [inhibitor, single point] |  |
| COCc1cc(C)c(C#N)c(=S)[nH]1 | active: 0.631 µM |  |
| COCCOC(=O)c1c(N)n(Cc2ccccc2)c2nc3ccccc3nc12 | active: 31.6 µM |  |
| CN(C)P(=NC(=S)c1cccn1C)(N(C)C)N(C)C | inconclusive: 31.6 µM [inhibitor, single point] |  |
| CCOc1cc(-c2ccc(N)c(OCC)c2)ccc1N | active: 20 µM |  |
| O=C(O)C1Sc2[nH]c(=O)sc2C2c3cc(Cl)ccc3OC(=O)C12 (stereo not drawn) | active: 20 µM |  |
| O=C1C=CC(=O)C=C1 | inconclusive: 10 µM [inhibitor, full curve] |  |
| CN1CSC(=S)N(C)C1 | inconclusive: 10 µM [inhibitor, full curve] |  |
| CC(C)CCn1c(N)c(C(=O)OCC2CCCO2)c2nc3ccccc3nc21 (stereo not drawn) | inconclusive: 31.6 µM [inhibitor, single point] |  |
| CC1CCCCN1CC(=O)c1ccc2cc[nH]c2c1 (stereo not drawn) | inconclusive: 31.6 µM [inhibitor, single point] |  |
| COCCn1cc(C(=O)N2CCC3(CC2)OCCO3)c2c3ccccc3n(C)c2c1=O |  | inactive: -28.7% |
| CCOC(=O)N(c1ccccc1)P1(=S)OCCO1 | inconclusive: 12.6 µM [inhibitor, partial curve] |  |
| NNc1nncn1N | inconclusive: 1.26 µM [inhibitor, full curve] |  |
| COC(=O)NC(=S)Nc1ccccc1NC(=S)NC(=O)OC | active: 1.58 µM |  |
| CCOC(=O)c1c(C)n(Cc2ccccc2)c2ccc(OCC(O)Cn3nc(C)nc3C)cc12 (stereo not drawn) | inconclusive: 39.8 µM [inhibitor, single point] |  |
| CCOC(=O)c1ccccc1N | inconclusive: 39.8 µM [inhibitor, single point] |  |
| CCOC(=O)c1c(N)n(CCN2CCCCC2)c2nc3ccccc3nc12 | inconclusive: 25.1 µM [inhibitor, single point] |  |
| CN1C(=O)C(Cc2cccc3ccccc23)C(=O)N(C)C1=O | inconclusive: 3.98 µM [inhibitor, partial curve] |  |
| O=C(O)c1cc[c]([Hg][Cl])cc1 | active: 6.31 µM |  |
| CC(C)(c1ccc(O)cc1)c1ccc(O)cc1 | inconclusive: 31.6 µM [inhibitor, partial curve] |  |
| N[C@@H](Cc1cc(O)c(O)cc1O)C(=O)O | active: 1.26 µM |  |
| CC(=O)N1CCC2(CC1)CC(=O)c1cc(OCC(=O)N3CCN(C)CC3)ccc1O2 | active: 12.6 µM |  |
| CC(=O)OC1=CC2=CC[C@H]3[C@H]4CCC(=O)[C@@]4(C)CC(=O)[C@]3(S)[C@]2(C)CC1 | inconclusive: 3.16 µM [inhibitor, partial curve, poor fit] |  |
| CCOC(=O)c1c(N)n(Cc2ccco2)c2nc3ccccc3nc12 |  | inactive: 483% |

| SMILES | Potency | activity change, negative = inhibition |
| --- | --- | --- |
| CCC(C)NC(=O)c1c(N)n(CCCOC)c2nc3ccccc3nc12 (stereo not drawn) | inconclusive: 31.6 µM [inhibitor, single point] |  |
| CN(C)CS/C(N)=N/[C@H](O)C(Cl)(Cl)Cl | inconclusive: 3.98 µM [inhibitor, single point] |  |
| CN1CCN(C(=O)COc2ccc3ccccc3c2Br)CC1 |  | inactive: -26.4% |
| CN(C)C=C1C(=O)N(C2CCCCC2)C(=O)N(C2CCCCC2)C1=O | inconclusive: 39.8 µM [inhibitor, single point] |  |
| Cc1ccc(-c2cn3c(=S)[nH]nc3s2)cc1 | active: 31.6 µM |  |
| N[C@]1(C(=O)O)CC[C@@H](C(=O)O)C1 |  | inactive: 6.85% |
| O=C(O)c1cc(O)c(O)c(O)c1 | active: 0.0501 µM |  |
| CCc1c(C)c2ccc(OCC(N)=O)cc2oc1=O | active: 3.98 µM |  |
| O=C1C2CC=CCC2C(=O)N1SC(Cl)(Cl)Cl (stereo not drawn) | active: 0.0794 µM |  |
| Cc1ccc(P(=S)(c2ccc(C)o2)N2CCOCC2)o1 | inconclusive: 39.8 µM [inhibitor, single point] |  |
| N#CC(C#N)=Cc1cc(O)c(O)c(O)c1 | active: 3.98 µM |  |
| CS(=O)c1ccc(-c2nc(-c3ccc(F)cc3)c(-c3ccncc3)[nH]2)cc1 (stereo not drawn) | active: 31.6 µM and active: 39.8 µM |  |
| CCCCn1c(N)c(C(=O)NCCN2CCOCC2)c2nc3ccccc3nc21 | inconclusive: 31.6 µM [inhibitor, single point] |  |
| O=C(O)CC[N+](=O)[O-] |  | inactive: -23.9% |
| Cn1c(=O)n(CC(=O)N2CCC3(CC2)OCCO3)c(=O)c2ccccc21 | active: 39.8 µM |  |
| Cc1cc(OCC(=O)O)c2c3c(c(=O)oc2c1)CCCC3 | active: 31.6 µM |  |
| CN(C)c1ccc2c(c1)N=C(c1ccco1)OP2(=S)N1CCOCC1 (stereo not drawn) | active: 7.94 µM |  |
| N[C@H](Cn1ccc(=O)[nH]c1=O)C(=O)O |  | inactive: -6.61% |
| N#CC(C#N)=NNc1cccc(Cl)c1 | inconclusive: 31.6 µM [inhibitor, single point] |  |
| C[C@@H]1CC[C@@]2(OC1)O[C@H]1[C@@H](O)[C@H]3[C@@H]4CC[C@H]5C[C@@H](O[C@@H]6O[C@H](CO)[C@H](O[C@@H]7O[C@H](CO)[C@@H](O)[C@H](O[C@@H]8OC[C@@H](O)[C@H](O)[C@H]8O)[C@H]7O[C@@H]7O[C@H](CO)[C@@H](O)[C@H](O[C@@H]8O[C@H](CO)[C@@H](O)[C@H](O)[C@H]8O)[C@H]7O)[C@H](O)[C@H]6O)[C@H](O)C[C@]5(C)[C@H]4CC[C@]3(C)[C@H]1[C@@H]2C |  | inactive: 11% |
| CCn1c(=O)n(CC(=O)N2CCC3(CC2)OCCO3)c(=O)c2ccccc21 | active: 25.1 µM |  |
| CN1C(=O)C(Cc2ccc3c(c2)OCO3)C(=O)N(C)C1=O | inconclusive: 31.6 µM [inhibitor, single point] |  |
| c1ccc(Nc2ccc(Nc3ccccc3)cc2)cc1 | inconclusive: 10 µM [inhibitor, full curve] |  |
